Data as given in paper PMC6919601, “Identification of Plasmodium dipeptidyl aminopeptidase allosteric inhibitors by high throughput screening” (PLoS ONE, 2019).
Among all 110,000 compounds or so, about 230 (0.21%) showed an effect of 50% or more. The list shows a part of the results.

Each molecule was assayed against DPAP1 (Plasmodium falciparum, UniProt Q8IIJ9) (assay: primary screen, percent inhibition; read by cleavage of a fluorogenic dipeptide substrate; higher = more effect of the substance).
Set-up: species or system P. falciparum D10 trophozoite lysates; single well
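Also: 30 min substrate incubation versus DMSO and 10 µM JCP410 controls.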

Sequence of DPAP1 (Q8IIJ9 whole entry, looked up): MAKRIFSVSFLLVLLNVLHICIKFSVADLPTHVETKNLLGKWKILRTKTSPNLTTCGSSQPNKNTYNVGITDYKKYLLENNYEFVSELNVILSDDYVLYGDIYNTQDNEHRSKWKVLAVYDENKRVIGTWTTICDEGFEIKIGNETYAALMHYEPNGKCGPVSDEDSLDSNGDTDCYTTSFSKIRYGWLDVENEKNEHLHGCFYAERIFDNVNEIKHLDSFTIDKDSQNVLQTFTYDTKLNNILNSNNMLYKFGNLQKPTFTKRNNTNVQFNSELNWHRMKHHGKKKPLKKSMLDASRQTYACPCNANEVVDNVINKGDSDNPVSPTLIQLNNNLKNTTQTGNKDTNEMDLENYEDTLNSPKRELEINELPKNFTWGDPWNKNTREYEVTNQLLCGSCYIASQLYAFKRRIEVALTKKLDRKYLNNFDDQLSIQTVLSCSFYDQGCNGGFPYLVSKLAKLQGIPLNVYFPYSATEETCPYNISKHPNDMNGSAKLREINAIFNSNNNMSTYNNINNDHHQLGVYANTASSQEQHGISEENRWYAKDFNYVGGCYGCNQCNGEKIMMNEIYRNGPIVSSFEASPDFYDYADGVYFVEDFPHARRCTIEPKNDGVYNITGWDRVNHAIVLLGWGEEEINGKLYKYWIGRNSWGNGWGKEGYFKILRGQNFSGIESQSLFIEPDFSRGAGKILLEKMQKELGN

| SMILES | % Inhibition @ 10 uM [%] |
| --- | --- |
| CCN(Cc1ccccc1)C(=O)Cn1c(=O)cc(C(F)(F)F)c2c(C)nn(-c3cccc(F)c3)c21 | 2.31 |
| O=C(CN1C(=O)C(=O)c2ccccc21)Nc1ccc(Cl)cc1 | 1.79 |
| Cc1ccccc1Cn1c(CCNC(=O)Cc2ccccc2)nc2ccccc21 | -6.55 |
| COc1ccc(N(CC(=O)Nc2cc(Cl)cc(Cl)c2)S(C)(=O)=O)cc1OC | 2.75 |
| Cc1cc(C)c(C#N)c(SCC(=O)c2ccc(F)cc2)n1 | 5.11 |
| O=C(Nc1nccs1)c1cc2cc(Br)ccc2oc1=O | 5.01 |
| COc1ccccc1C(=O)N(Cc1nc(-c2ccc(Cl)cc2)no1)C(C)C | 1.66 |
| CC(C)N(Cc1nc(-c2ccc(Cl)cc2)no1)C(=O)CC(C)(C)C | -5.58 |
| CC1C2CC(C(S(N)(=O)=O)C2=O)C1(C)C (stereo not drawn) | 2.55 |
| COc1cc(NC(=O)c2ccccc2F)ccc1NC(=O)c1ccco1 | 0.475 |
| COc1cc(NS(=O)(=O)c2ccc(NC(=O)c3ccc(Br)s3)cc2)nc(OC)n1 | 7.04 |
| COC(=O)c1conc1-c1cccnc1 | -0.711 |
| CC1CC(C)CN(C(=O)CCCc2c[nH]c3ccccc23)C1 (stereo not drawn) | 0.238 |
| NC1=C(c2nc3ccccc3[nH]2)C(=O)CN1Cc1ccco1 | 3.74 |
| CCCCn1c2ccccc2n2c(C(=O)OC)c(C)nc12 | -4.98 |
| CCSc1nnc(NC(=O)Cn2cc(S(=O)(=O)NC)c(S(=O)(=O)NC)c2)s1 | 0.709 |
| CCN(CC)c1ccc(Nc2nc(-c3c(C)nc4ncccn34)cs2)cc1 | -0.711 |
| COc1cc(OC)c(-c2nnc3n(Cc4ccccc4)c(=O)c4ccccc4n23)cc1OC | -5.37 |
| CCSc1nc2c(c(=O)[nH]c(=O)n2C)n1CCc1ccccc1 | 4.67 |
| CCCCc1n[nH]c(SCC(=O)Nc2ncccn2)n1 | 2.03 |
| O=c1[nH]c(=O)n(Cc2ccccc2)c2c1C(C(F)(F)F)(C(F)(F)F)NC(c1ccco1)=N2 | 1.57 |
| C=CCN1C(=O)N/C(=C/c2ccc(OC(C)CC)c(Br)c2)C1=O (stereo not drawn) | 3.68 |
| COc1ccccc1N1CCN(Cc2ccc(OC)c(C)c2C)CC1 | 0.847 |
| Cc1cc(C)nc(N2CCNCC2)n1 | -3.75 |
| COc1ccc(OC)c(N(CC(=O)Nc2ccc(C(C)C)cc2)S(C)(=O)=O)c1 | -1.43 |

| SMILES | % Inhibition @ 10 uM [%] |
| --- | --- |
| Cc1c(Cl)cccc1NC(=O)CN1C(=O)c2cccc3cccc1c23 | -0.949 |
| COc1ccc(-c2[nH]ncc2/C=C2\OC(=O)c3c2cc(C)nc3S)cc1 | 26 |
| CCn1cc(CN(C)C(=O)c2cc3n(n2)C(C(F)(F)F)CC(c2ccco2)N3)c(C)n1 (stereo not drawn) | -1.18 |
| CCOC(=O)C1CCCCN1Cc1cccc(F)c1 (stereo not drawn) | 3.1 |
| Cc1ccc2[nH]c(C(F)C(F)(F)F)nc2c1 (stereo not drawn) | -5.5 |
| O=C1C=C(N2CCN(S(=O)(=O)c3ccccc3)CC2)C(=O)N1c1cccc(Cl)c1 | -0.988 |
| N#CC1=C(N)OC2=C(C(=O)CCC2)C12C(=O)c1ccccc1C2=O | -0.216 |
| COc1ccc(C(=O)N2CCc3ccccc32)cc1Br | -2.28 |
| Cc1ccc(C)c(S(=O)(=O)NCc2ccc(C(=O)NCc3ccco3)cc2)c1 | 6.94 |
| CC(=O)c1cc2c(s1)SCc1ccccc1C2 | 8.94 |
| Cc1nc2c(cc1C(=O)/C=C/c1ccc(N(C)C)cc1)CCCC2 | -1.98 |
| Cc1cc(C)c(S(=O)(=O)NCC(c2cccnc2)N2CCN(Cc3ccccc3)CC2)c(C)c1 (stereo not drawn) | -3.51 |
| CCC1(C(O)(C#CCN(CCO)CCO)c2ccccc2)CCCC1 (stereo not drawn) | 0.408 |
| O=C(c1ccco1)N1CCN(C(=O)c2cc3c(s2)-c2ccc(Cl)cc2SC3)CC1 | 0.953 |
| CC(C)CCn1c(SC(C)C)nc2c1c(=O)[nH]c(=O)n2C | 0.983 |
| COCC(=O)Nc1nc2nccc(C)n2n1 | -1.31 |
| Cn1c(=O)c2c(nc(CN3CCCCC3)n2Cc2ccccc2)n(C)c1=O | -0.499 |
| CC1CCc2c(sc3nnn(CC(=O)c4cc5ccccc5o4)c(=O)c23)C1 (stereo not drawn) | -2.71 |
| O=C(O)CNC(=S)N(Cc1cccs1)C1CCCCC1 | 7.61 |
| COc1cccc(CNc2nc3ccccc3n2CCN2CCOCC2)c1OC | -2.91 |
| CC1=C(C(=O)Nc2ccccn2)C(c2ccc(Br)cc2)C2=C(O)CC(C)(C)CC2=N1 (stereo not drawn) | 4.32 |
| CCCOC(=O)c1ccc(NC(=O)c2ccccc2Br)cc1 | 2.22 |
| COC(=O)C1=C(C)NC(=O)NC1c1cccc(Cl)c1Cl (stereo not drawn) | -2.2 |
| CCC1(C)CC(CCN)(c2ccc(F)cc2)CCO1 (stereo not drawn) | -4.18 |
| CCN1CCC(O)(c2ccc(F)cc2)C(C(=O)c2ccc(F)cc2)C1 (stereo not drawn) | -1.52 |

| SMILES | % Inhibition @ 10 uM [%] |
| --- | --- |
| COc1ccccc1CCNC(=O)Cn1ccc2cc(S(=O)(=O)N3CCCC3)ccc21 | -5.04 |
| Cc1cccc(C)c1NC(=O)c1sc2nc3c(cc2c1N)CN(C)CC3 | 3.72 |
| C=CCOc1ccccc1CNCc1cccs1 | 1.88 |
| CCCOc1ccc(C(=O)NC(CC(C)C)C(=O)NCC#N)cc1 (stereo not drawn) | 3.19 |
| COc1ccccc1CNC(=O)c1cn(C)c(=O)c2c1c1ccccc1n2C | 1.37 |
| Cc1ccc(C(=O)N/C(=C\c2ccc(F)cc2)C(=O)NCCCn2ccnc2)cc1 | 6.51 |
| N#CCNC(=O)[C@H](Cc1cc(Cl)c(O)c(Cl)c1)NC(=O)c1ccc(Br)cc1 | 0.173 |
| Cc1cc(C)cc(NC(=O)CN(c2ccc(F)cc2)S(C)(=O)=O)c1 | -5.27 |
| Cc1nn(CCC(=O)NCC2CCCO2)c(=O)c2nn(-c3ccccc3)c(C)c12 (stereo not drawn) | -4 |
| O=C(CSc1nc2c(c(=O)n1CCc1ccccc1)SCC2)NCc1ccccc1Cl | 2.19 |
| Cc1c(Br)c(C(F)(F)F)nn1CC(=O)NC12CC3CC(CC(C3)C1)C2 | -5.69 |
| CC(C)Cc1sc(C(=O)O)cc1[N+](=O)[O-] | 2.33 |
| COc1ccc(C=C2C(=O)NC(=O)NC2=O)cc1 | 1.29 |
| CCOCCCNC(=O)C1CCN(c2nnc(C)c3c(C)n(-c4ccc(Cl)cc4)nc23)CC1 | -2.5 |
| CCCN1CCN(C(=O)C2CCN(c3nn4cc(-c5ccc(C)cc5)nc4s3)CC2)CC1 | 7.9 |
| COc1ccc(S(=O)(=O)NCCOC23CC4CC(CC(C4)C2)C3)cc1OC | -5.41 |
| Cc1cc(C)c2c(CC(=O)N(Cc3ccc(C(C)C)cc3)C3CCS(=O)(=O)C3)coc2c1 (stereo not drawn) | -7.96 |
| Cc1nn(-c2ccccc2)c(Cl)c1C1C(C#N)=C(N)Oc2[nH]nc(C(C)(C)C)c21 (stereo not drawn) | 25.9 |
| Cc1ccc(OCC(=O)Nc2ccccc2C(=O)Nc2ccccc2)cc1 | -0.992 |
| NS(=O)(=O)c1ccc(NC(=O)C2CC=CCC2C(=O)O)cc1 (stereo not drawn) | -1.88 |
| CCOC(=O)c1c(C)[nH]c(C)c1S(=O)(=O)NCC(=O)NCc1ccc2c(c1)OCO2 | -5.89 |
| O=C(NCCCN1CCCC1)C1CC(=O)N(C2CCCC2)C1 (stereo not drawn) | -2.99 |
| O=C(NC1CCN(Cc2ccccc2)CC1)C1CCN(c2nnc(N3CCCC3=O)s2)CC1 | 2.27 |
| Cc1cc(C)nc(SCC(=O)Nc2cc(C)c(C)cc2Br)n1 | -2.19 |
| COc1ccc(-c2cc(C(F)F)n3ncc(C(=O)NCC(C)C)c3n2)cc1 | -2.75 |

| SMILES | % Inhibition @ 10 uM [%] |
| --- | --- |
| CCN1CCC(NCc2ccc(Br)cc2)CC1 | -2.56 |
| OCCSc1nnc(COc2ccc(Br)cc2)n1-c1ccccc1 | 0.401 |
| O=C(NCc1nnc(SC/C=C/c2ccccc2)o1)c1cccs1 | -1.58 |
| Cc1ccc(S(=O)(=O)N(C)Cc2nc(-c3ccc(Br)cc3)no2)cc1 | 7.02 |
| O=C(c1ccc2nc(N3CCOCC3)sc2c1)N1CCCC1 | -0.637 |
| N#Cc1ccc(Sc2nc3ccccc3[nH]2)cc1C#N | -2.13 |
| CCOC(=O)c1cnc(SCc2cccc(Oc3ccccc3)c2)nc1N | -3.02 |
| COc1ccc(CCNC(=O)C2c3ccccc3C(=O)N2Cc2ccc(F)cc2Cl)cc1OC (stereo not drawn) | 5.23 |
| CCCc1c(C(=O)OCC)[nH]c2c1C(=O)CC(C)(C)C2 | -1.92 |
| COc1cccc2c1OC(c1ccccc1Cl)N1N=C(c3ccco3)CC21 (stereo not drawn) | 3.47 |
| CCC(C)NC(=O)c1c(C)[nH]c(C(C)=O)c1C (stereo not drawn) | -0.0652 |
| N#Cc1c(N)n(-c2cc(Cl)cc(Cl)c2)c2nc3ccccc3nc12 | 1.96 |
| O=C(Nc1ccccc1C(=O)O)c1ccc(NC(=O)C2CC2)cc1 | -0.553 |
| O=C(Nc1cnn(C23CC4CC(CC(C4)C2)C3)c1)c1cc(-c2ccc(F)cc2)no1 | 4.07 |
| CCCOC(=O)C1=C(C)NC(=O)NC1c1ccc(F)cc1 (stereo not drawn) | -0.0505 |
| COc1ccc(-c2nc3c4cnn(C)c4ncn3n2)cc1 | -4.64 |
| Cc1cc(C)cc(NC(=O)c2ccc(Br)s2)c1 | 7.97 |
| O=C(/C=C/c1ccco1)NC1=NCCS1 | 0.238 |
| COc1cc(C2C(C#N)=C(N)Oc3[nH]nc(C)c32)cc(Br)c1OCc1ccc(F)cc1 (stereo not drawn) | -1.64 |
| CC1(C)OC(=O)N(Cc2cccnc2)C1(C)O (stereo not drawn) | 1.76 |
| C/C=C/C(=O)Nc1ccc(OC)cc1 | 0.912 |
| CC(NC(=O)CN1N=C(c2ccccc2)CCC1=O)c1ccccc1 (stereo not drawn) | 0.514 |
| N#CC1=C(N)Oc2[nH]nc(-c3cccs3)c2C1c1cccc(F)c1 (stereo not drawn) | 3.05 |
| CCOC(=O)c1c(C)oc2c1cc(NS(=O)(=O)c1ccc(Cl)cc1)c1ccccc12 | -2.63 |
